# Measurements taken from publication PMC12136788.
# Some of the results follow.
# B1: 41988903_41989023_1755_CDS_ENSG00000174197_ENST00000570161|human|control|control (ssRNA)
# RNA: GGGAGUUCUACAGUCCGACGAUCAUUCUGAUUAGCAUUCACUACCUUUGCGGCUGUUGCAAUCUUAAGCAUAGUUGUUCUCUUUCUGCCCAAGUCCUCUUUUCCUGAAAGUGAGUCUCCAACUGAAUCCUUUGAAUCGUCGAGCAACAGAGGAUUGAGCAUCA
# B2: chr9:123232447:123232448:-_ENSG00000136861_ENST00000349780|hu_mus|FALSE|FALSE (ssRNA)
# RNA: GGGAGUUCUACAGUCCGACGAUCCAAUUGGAACUGAUUGUGCUCUUCAAGGCAAAUACUCAGAUACGAUGUUUGAUCGCUAUAAAAUGAAAACGGCUCUUCUUCUCGACUCCGAAUCUCACUGAGCUGCUCCUGCAGGGCCUUCAACAGAGGAUUGAGCAUCA
# B3: chr7:125879632:125879633:+_ENSMUSG00000033904_ENSMUST00000106557|mus_mus|FALSE|FALSE (ssRNA)
# RNA: GGGAGUUCUACAGUCCGACGAUCUAUUACUAUGUUCUCUGAGAUCCGGAUUGCUUAUUAAAUAGCCCUUUAUUCUCUCCUAUGUAAAGCAUGCUAGAAAAAGAAGACUGAAAAAACAAACAAUAUAGACUAACUAGAACUAGCCAACAGAGGAUUGAGCAUCA
# B4: chr10:33190432:33190433:-_ENSG00000150093_ENST00000302278|hu_mus|hu_hu_hu_mus_True|1_8 (ssRNA)
# RNA: GGGAGUUCUACAGUCCGACGAUCUACAUUUUCCAAACCUGCAUGUGAAUAAAACCCUGGCCACAGAGCCCCAAAACUACCCUACUGUGACUAAGAUGCUGCUGCUGUGAGCUUGGUGUUGCAAAAUUUUGCACGGGCAGUACUCAACAGAGGAUUGAGCAUCA
# B5: chr4:128995729:128995730:-_ENSMUSG00000057236_ENSMUST00000102598|mus_hu|motif|central (ssRNA)
# RNA: GGGAGUUCUACAGUCCGACGAUCCUCUCCAAUUUUACUUAAAUCCCAGACAUUCAGUCUGCGAUCAGUACCACUGGAAGCGGAAAUAGUCUCAUUGUGAGGUGACCACUGAACCUGGAAUAUUUCAUCCUUAUGUGACUCAAACAACAGAGGAUUGAGCAUCA
# B6: 133030908_133036614_852_CDS_ENSMUSG00000028013_ENSMUST00000029644|mouse|control|control (ssRNA)
# RNA: GGGAGUUCUACAGUCCGACGAUCAGGGCUAUCGCAGAUGUGCACAUUUACACAACUGAUGGCUCCCUUGUCACACUUCUUCAUAACCAUCUCUUUCCAACGUUCAUGUGCAGAGUUAAUAACGUCGAGGGCGAAAGCCUUGUUCAACAGAGGAUUGAGCAUCA
# Target: T1, UNK ZnF1-3 (human, UniProt Q9C0B0 31-174)
# T1 sequence: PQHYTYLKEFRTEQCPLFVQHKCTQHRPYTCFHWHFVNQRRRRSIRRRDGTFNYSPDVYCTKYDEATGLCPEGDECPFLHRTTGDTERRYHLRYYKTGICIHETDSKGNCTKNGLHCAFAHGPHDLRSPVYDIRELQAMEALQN
# Experiment: nsRBNS (natural sequence RNA bind-n-seq); RBNS binding buffer (assumed for nsRBNS): 25 mM Tris pH 7.5, 150 mM KCl, 3 mM MgCl2, 0.01% Triton X-100, 500 ug/ml BSA, 20 U/ml SUPERase-In, 4 C; UNK is unkempt and MSI1 is Musashi-1; names of the RNAs are library labels; protein concentration not given here; high values mean tight binding
row,Binder,binding signal
1,B1,0.511 enrichment R
2,B2,0.781 enrichment R
3,B3,1.25 enrichment R
4,B4,1.24 enrichment R
5,B5,0.817 enrichment R
6,B6,0.736 enrichment R
